Test results reported in paper PMC12136788.
The other results are listed elsewhere or left out.

T1: UNK ZnF1-3 (human, UniProt Q9C0B0 31-174)
T1 sequence: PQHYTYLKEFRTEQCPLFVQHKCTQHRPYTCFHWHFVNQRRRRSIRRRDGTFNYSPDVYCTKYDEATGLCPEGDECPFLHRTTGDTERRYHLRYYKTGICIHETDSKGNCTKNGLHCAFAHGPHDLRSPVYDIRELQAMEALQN

B1: chr2:162087991:162087992:+_ENSG00000136560_ENST00000392749|hu_hu|FALSE|FALSE (ssRNA)
RNA: GGGAGUUCUACAGUCCGACGAUCUUUUCCCGGGGAAUCGAGUGAGGGAAAAGGUGCAUCAGAUGGGUCCAGAAGUGGGAAGCUAUUUACAUAUAAUGCAUUAUGGUCUCCAGGUGGCAAACACGCAGCUCUAUCCAGAGUUGUCAACAGAGGAUUGAGCAUCA
B2: 30653276_30653396_590_CDS_ENSG00000146112_ENST00000399199|human|control|control (ssRNA)
RNA: GGGAGUUCUACAGUCCGACGAUCCCUCCAGUCCCGAGCCUCCAGAGGCCUCAGGCUCAACUCUUGGGCUCCCCCUAUCCCCAGCCUCCUCUCUCUGGUCUCCCUCGGACUUAGUCUCUCUUCUCUUGACUCUCUUCCCUUGGGCAACAGAGGAUUGAGCAUCA
B3: chrX:20248820:20248821:+_ENSMUSG00000001924_ENSMUST00000001989|mus_mus|mus_mus_mus_hu_True|88_88 (ssRNA)
RNA: GGGAGUUCUACAGUCCGACGAUCGGCGAAGUCCGUCACCACAAAGUCAGGCUCUACCAGUGAGGCCACCAAGGAUUUAAAGCUAAUCUUCUUAGGUACUUUGACCUGACUGACGAUGCCUCCACGGAUGUAGUCGGAGAAGUUCAACAGAGGAUUGAGCAUCA
B4: chr16:94664741:94664742:+_ENSMUSG00000040785_ENSMUST00000117648|mus_hu|mus_mus_mus_hu_False|48_98 (ssRNA)
RNA: GGGAGUUCUACAGUCCGACGAUCUGGUACUGAUCUUUGCAUUGGAUAUUCAGGAGAAAGGCUGGCCAAGGGUGUAUAUAUGCUGGUGAACUGCGACAAACCUGGUAACACGUUUAUGUAUGCUGGCGGUGUCUGGGUGAUAUCCAACAGAGGAUUGAGCAUCA
B5: chr11:122930872:122930873:-_ENSG00000109971_ENST00000227378|hu_hu|motif|central (ssRNA)
RNA: GGGAGUUCUACAGUCCGACGAUCAACCUUUUUGUCUAAGCCGUAAGCAAUAGCAGCAGCAGUUGGCUCAUUAAUAAUUCGGAGUACAUUGAGACCAGCAAUAGUUCCAGCAUCUUUGGUAGCCUGACGCUGAGAGUCAUUAAACAACAGAGGAUUGAGCAUCA
B6: chr4:148551591:148551592:-_ENSMUSG00000063077_ENSMUST00000060537|mus_hu|mus_mus_mus_hu_False|8_58 (ssRNA)
RNA: GGGAGUUCUACAGUCCGACGAUCACCUGACAAAAUUAAAUAUCCCUGUAAAUUAGACAAUAAGCAGCAGGCAACAAAGUCUAUGCUUUGGAAUAUGUGCCAGGAAAAGUCAUCUUGUUUUUAGAUCACACCUUUCAGUUCACACAACAGAGGAUUGAGCAUCA
B7: chr15:84027467:84027468:+_ENSMUSG00000022437_ENSMUST00000023071|mus_hu|FALSE|FALSE (ssRNA)
RNA: GGGAGUUCUACAGUCCGACGAUCUUUGGCCUUGAAAACAUCUCCAAUUUCACAAAUGAUGAUAUCAUCUUUAGUCCUUCCAAGUCCAUCAAAAUGAACAUGUUGAACAACCACAUCUUUGUUUUCAAGAAUUUCCUGUUUAGCCAACAGAGGAUUGAGCAUCA
B8: chr2:155483634:155483635:-_ENSMUSG00000038324_ENSMUST00000041059|perfect_dup|FALSE|FALSE (ssRNA)
RNA: GGGAGUUCUACAGUCCGACGAUCGGUGACAGCCAGGAUCCUGCAGAAGUUAGCAAGCUGCUGCUGAUCGAAAUUGGAUACUAAGGAACUCAGAUUGGGAACUUCAUCUAGCCGGAUCAUUUCCUUCUUAACACCCAAAAUGUCCAACAGAGGAUUGAGCAUCA
B9: chr5:23013406:23013407:-_ENSMUSG00000062604_ENSMUST00000088392|mus_mus|motif|central (ssRNA)
RNA: GGGAGUUCUACAGUCCGACGAUCUCCAAUGUACUGGGAGAAAUUUGCUAGCUCAGAAUGCUAUAUUUGUAGAAUCUGCGGAGAAUUCAACCAAGGAUGUCGAAGGCAUUCGCCAGCUGAGGCUCGUUUUUCUGGAACCAUCUCCAACAGAGGAUUGAGCAUCA
B10: chr3:122261000:122261001:-_ENSMUSG00000039735_ENSMUST00000162409|mus_hu|motif|central (ssRNA)
RNA: GGGAGUUCUACAGUCCGACGAUCGUAAUCUUCAAAUGGAAAGUCUCCUGGAGGUUCAAAACCAGAUUUGAAGGAGUCGGCCACCAUUUGAGAGUCUCUUCUUUCAUCAACUGAUUUUGCUGCAAGAAUCAUUCCUUCCAAACACAACAGAGGAUUGAGCAUCA
B11: chr5:43656058:43656059:+_ENSG00000112992_ENST00000512996|hu_mus|FALSE|FALSE (ssRNA)
RNA: GGGAGUUCUACAGUCCGACGAUCGUAAGCCACAAUCUUGGUGAAAUUUGACGUGGCAUCCAUUGCAAAAUGUGGAUACUCUACGAUGUACUCGGCCAUGCAGGUAAGAACUGCUGCCAGCCCCACCAAACUGUGGAAAGCAGCCAACAGAGGAUUGAGCAUCA
B12: chr5:33369694:33369695:+_ENSMUSG00000018965_ENSMUST00000019109|mus_mus|FALSE|FALSE (ssRNA)
RNA: GGGAGUUCUACAGUCCGACGAUCGGAAUCCUCGUUUAAUGUGUCCAGCUCAGCUAUAGCAUCAUCGAAGGCUUGUUUGGCUAAGAGGCAGGCUUGCUCUGGUGCAUUCUGGAUCUCAUAGUAGAACACAGAAAAAUUGAGGGCCAACAGAGGAUUGAGCAUCA
B13: chrX:153608698:153608699:+_ENSG00000102119_ENST00000428228|hu_hu|FALSE|FALSE (ssRNA)
RNA: GGGAGUUCUACAGUCCGACGAUCAAGAAGACAAAAGAUCGUCAUCAUGCACCUGGUGAUGGAAAGCGUCAGCAUCUGGGAAUGAAGUCACUGACUGGCGGACAGCCCUGGACGGGCCGGCAGACUCGGGCUCCCCAUAAGUCCCAACAGAGGAUUGAGCAUCA
B14: chr15:31387667:31387668:-_ENSMUSG00000039100_ENSMUST00000090227|mus_mus|FALSE|FALSE (ssRNA)
RNA: GGGAGUUCUACAGUCCGACGAUCUGGGCCCUCAGACCUUUCCAACUAUGGGUUUAAUACUCCAUGGAACUCUUUACAGUCUAUGAAAGCUUCUAGCACUAUCCUUAUAAUACACCUUUACCAUUAAACACUUGAAUGACGUACCAACAGAGGAUUGAGCAUCA

Target: T1, UNK ZnF1-3
Test: nsRBNS (natural sequence RNA bind-n-seq); RBNS binding buffer (assumed for nsRBNS): 25 mM Tris pH 7.5, 150 mM KCl, 3 mM MgCl2, 0.01% Triton X-100, 500 ug/ml BSA, 20 U/ml SUPERase-In, 4 C; UNK is unkempt and MSI1 is Musashi-1; names of the RNAs are library labels; protein concentration not given here; high values mean tight binding

In order of falling binding signal:
1. B13  1.61 enrichment R
2. B5  1.52 enrichment R
3. B1  1.23 enrichment R
4. B12  1.18 enrichment R
5. B6  1.17 enrichment R
6. B9  1.13 enrichment R
7. B4  1.07 enrichment R
8. B3  0.951 enrichment R
9. B8  0.94 enrichment R
10. B14  0.894 enrichment R
11. B2  0.822 enrichment R
12. B11  0.804 enrichment R
13. B7  0.792 enrichment R
14. B10  0.782 enrichment R
